Assay results from PubChem BioAssay AID1508624 (National Center for Advancing Translational Sciences (NCATS), 2021).
“And” between values parts separate entries of the source, which are not always exact repeats. Equal values may be shown once. Out of some 48,000 compounds screened, about 120 (0.25%) were called active. About 4% were inconclusive and are not listed. Calls come from the whole dose curve; as a rule, active = well fitted activation curve with a large enough effect; inconclusive = small, poorly fitted or top-dose-only effect, or another doubt; inactive = no such curve, though single readings can be large or run the other way. This is one part of the list.

Assay: Primary qHTS for Identification of Small Molecule Activators of Huntingtin-Antisense Promoter Activity; note: nearly all actives have a fitted effect of over 55% in size
Settings: HEK293 HTT-AS promoter firefly luciferase reporter, 24 h
Method in brief: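 HEK293 luciferase promoter-reporter cells (2,500/well) plated 24 h, then compounds added at up to 57.5 uM final for 24 h at 37 °C. Firefly luminescence by Dual-Glo, normalized to vehicle (0%) and zero RLU (-100%).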

[1] = at 57.5 µM (top of the series) unless noted

Cn1c(=O)n(C)c2cc(CNCCc3ccc(F)cc3)ccc21
activity change, positive = activation [1]: inactive: -10.2% [at 57.5 µM, percent change from vehicle, -100% = no light]

Cc1ccc(NC(=O)Cn2cc(C(=O)c3ccccc3)c3ccccc32)cc1
activity change, positive = activation [1]: inactive: -43.8%

Cc1ccc2nc(NC(=O)c3cccn(Cc4ccc(Cl)cc4)c3=O)sc2c1
activity change, positive = activation [1]: inactive: -17.1% [at 57.5 µM, percent change from vehicle, -100% = no light]

COC[C@@H](NC(C)=O)C(=O)NCc1ccccc1
activity change, positive = activation [1]: inactive: -7.96%

Cc1ccc(Cl)cc1NC(=O)N(Cc1ccc2c(c1)OCO2)C1CCN(Cc2ccccc2)CC1
activity change, positive = activation [1]: inactive: -29.1%

CN1C(=O)CCS(=O)(=O)C1c1ccc(Cl)cc1 (centres undefined)
activity change, positive = activation [1]: inactive: -28.6% and inactive: -5.25%

CN(C)[C@@H]1C(=O)C(C(N)=O)=C(O)[C@@]2(O)C(=O)C3=C(O)c4c(O)cccc4[C@@](C)(O)[C@H]3[C@H](O)[C@@H]12
activity change, positive = activation [1]: inactive: -9.23%

Cc1cccc(Cc2cnc[nH]2)c1C
activity change, positive = activation [1]: inactive: -15%

c1ccc2c(c1)sc1ccccc12
activity change, positive = activation [1]: inactive: -1.84%

O=P1(N(CCCl)CCCl)NCCCO1 (centres undefined)
activity change, positive = activation [1]: inactive: -12% and inactive: -9.35%

CC(C)(C)CC(C)(C)c1ccc(O)cc1
activity change, positive = activation (at 57.5 µM (top of the series)): inactive: -11%
activity change, positive = activation (at 116 µM (top of the series)): inactive: -20.4%

O=C(COc1cc(Cl)ccc1Cl)Nc1ccc(Cl)cc1C(=O)c1ccccc1
activity change, positive = activation [1]: inactive: -11.3%

NC(=O)CS(=O)C(c1ccccc1)c1ccccc1 (centres undefined)
activity change, positive = activation [1]: inactive: 1.4%

Oc1ccccc1-c1ccccc1
activity change, positive = activation [1]: inactive: -4.2%

CCCCCCCCCC(CC)c1ccc(S(=O)(=O)O)cc1 (centres undefined)
activity change, positive = activation [1]: inactive: -17% [at 116 µM]

COc1ccc(NC(=O)c2sc3nc4c(cc3c2N)N2CCC4CC2)cc1OC
activity change, positive = activation [1]: inactive: -4.45%

Cc1cccc(CN2CC=C(c3noc(CCC(=O)Nc4ccc(C)c(F)c4)n3)CC2)c1
activity change, positive = activation [1]: inactive: -16.6%

CC(=O)NC1CCSC1=O (centres undefined)
activity change, positive = activation [1]: inactive: 0.287%

O=C(COc1ccccc1F)N1CCN(Cc2cc(=O)n3nc(-c4ccccc4Cl)sc3n2)CC1
activity change, positive = activation [1]: inactive: -17.6%

CCN(CC)CCN1C(=O)CN=C(c2ccccc2F)c2cc(Cl)ccc21
activity change, positive = activation [1]: inactive: -3.34%

N#C[C@H](O[C@@H]1O[C@H](CO[C@@H]2O[C@H](CO)[C@H](O)[C@H](O)[C@H]2O)[C@H](O)[C@H](O)[C@H]1O)c1ccccc1
activity change, positive = activation [1]: inactive: -30.4%

O=C(NC(O)C(Cl)(Cl)Cl)NC(O)C(Cl)(Cl)Cl (centres undefined)
activity change, positive = activation [1]: inactive: -2.24%

Cc1ccc2c(c1)C(Cc1nc3ccccc3c(=O)n1-c1ccc(Br)cc1)C(=O)N2 (centres undefined)
activity change, positive = activation [1]: inactive: -15.3%
